From the supplement of paper PMC9588766
Structures can show the parent of a compound that is named as a salt. ± gives the standard deviation of the averaged measurements. In all, about 2,000 compounds were measured (“cell viability relative to DMSO control (compound alone)”: median about 0.98, lowest 2% from about 0.23 on). This is one part of the list.

test system: PDC-DUC18828; assay: cell viability relative to DMSO control (compound alone) (fraction); PDC-DUC18828 is a patient-derived cholangiocarcinoma cell line; higher = less growth inhibition; conditions: 1 µM; 72 h
Method: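 Selleck Bioactive library screen in the patient-derived FGFR2-G3BP2 fusion-positive ICC cell line PDC-DUC18828 (500 cells/well). Each compound was tested at 1 uM alone, in triplicate, for 72 h. Viability was read by CellTiter-Glo and normalised to plate DMSO controls.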

| SMILES | cell viability |
| --- | --- |
| COc1ccc([C@@H]2Sc3ccccc3N(CCN(C)C)C(=O)[C@@H]2OC(C)=O)cc1 [Diltiazem HCl] | 0.967 ± 0.043 |
| Cc1cn([C@H]2C[C@H](N=[N+]=[N-])[C@@H](CO)O2)c(=O)[nH]c1=O [Zidovudine] | 1.02 ± 0.015 |
| CC(=O)c1cc([N+](=O)[O-])c(Sc2ccc(F)cc2F)s1 | 0.969 ± 0.04 |
| CCNC(=O)c1noc(-c2cc(C(C)C)c(O)cc2O)c1-c1ccc(CN2CCOCC2)cc1 | 0.342 ± 0.013 |
| CC(=O)C1=C(O)C=C2Oc3c(C(C)=O)c(O)c(C)c(O)c3C2(C)C1=O (single isomer, unassigned; (+)) [(+)-Usniacin] | 0.9727 ± 0.0077 |
| CNCc1ccc(-c2[nH]c3cc(F)cc4c3c2CCNC4=O)cc1 | 0.907 ± 0.05 |
| CCCNC(C)C(=O)Nc1c(C)csc1C(=O)OC (stereo not given) [Articaine HCl] | 0.967 ± 0.03 |
| COc1ccc(CCc2nc3cc(-c4c(C)noc4C)ccc3n2C[C@H](C)N2CCOCC2)cc1Cl | 1.03 ± 0.053 |
| O=C(O)c1cc2cccc([N+](=O)[O-])c2[nH]1 | 1.02 ± 0.051 |
| O=C(O)c1ccc(-n2nc(-c3ccccc3O)nc2-c2ccccc2O)cc1 [Deferasirox] | 0.941 ± 0.034 |
| CN1C(C(=O)Nc2ccccn2)=C(O)c2ccccc2S1(=O)=O [Piroxicam] | 1.08 ± 0.027 |
| COc1c(C)c2c(c(O)c1C/C=C(\C)CCC(=O)OCCN1CCOCC1)C(=O)OC2 [Mycophenolate Mofetil] | 0.555 ± 0.04 |
| COCCOC(=O)C1=C(C)NC(C)=C(C(=O)OC(C)C)C1c1cccc([N+](=O)[O-])c1 (stereo not given) [Nimodipine] | 0.943 ± 0.06 |
| NCCS [Cysteamine HCl] | 1.04 ± 0.047 |
| O=C(NCc1cccc(O)c1)Nc1nc(-c2ccncc2)cs1 | 0.858 ± 0.014 |
| COC(=O)CCc1ccc(OCC(O)CNC(C)C)cc1 (stereo not given) [Esmolol HCl] | 0.964 ± 0.013 |
| CC1(C)[C@@H](O)CC[C@]2(C)[C@H]3C(=O)C=C4[C@@H]5C[C@@](C)(C(=O)O)CC[C@]5(C)CC[C@@]4(C)[C@]3(C)CC[C@@H]12 [Enoxolone] | 0.992 ± 0.053 |
| CC1(C)CC(=O)c2c(C(F)(F)F)nn(-c3ccc(C(N)=O)c(N[C@H]4CC[C@H](OC(=O)CN)CC4)c3)c2C1 | 0.336 ± 0.018 |
| Oc1ccc(Cc2nc3c(Cc4ccccc4)nc(-c4ccc(O)cc4)cn3c2O)cc1 [Coelenterazine] | 0.961 ± 0.034 |
| C[C@H]1COC2(CCN(c3nc(=O)c4cc(C(F)(F)F)cc([N+](=O)[O-])c4s3)CC2)O1 (racemic) [BTZ043 Racemate] | 0.941 ± 0.051 |
| Cc1ccc(C)c(OCCCC(C)(C)C(=O)O)c1 [Gemfibrozil] | 1.06 ± 0.023 |
| O=C(O)C[C@H](O)C[C@H](O)/C=C/c1c(C2CC2)nc2ccccc2c1-c1ccc(F)cc1 [Pitavastatin Calcium] | 0.869 ± 0.081 |
| O=C(CCCN1CCC(O)(c2ccc(Cl)cc2)CC1)c1ccc(F)cc1 [Haloperidol] | 1.02 ± 0.072 |
| COc1cc2c(cc1OC)[C@@H]1Cc3ccc(OC)c(OC)c3CN1CC2 [Rotundine] | 0.955 ± 0.041 |
| C[C@H](NC(=O)CCc1nc2ccccc2c(=O)[nH]1)c1ccccc1 | 1.06 ± 0.025 |

| SMILES | cell viability |
| --- | --- |
| NCC(=O)CCC(=O)O [5-Aminolevulinic acid HCl] | 0.962 ± 0.054 |
| CN1CCC(CNc2ccc3ncc(-c4cccc(OC(F)(F)F)c4)n3n2)CC1 [SGI-1776 free base] | 0.894 ± 0.056 |
| Cc1ccc(Sc2ccccc2N2CCNCC2)c(C)c1 | 1.04 ± 0.021 |
| Cc1nn(C)c(COc2ccc(N3CCN(S(=O)(=O)N(C)C)CC3)cc2)c1-c1cccc2c(CCCOc3cccc4ccccc34)c(C(=O)O)n(CCN3CCOCC3)c12 | 0.997 ± 0.033 |
| CCCC(=O)Nc1ccc(OCC(O)CNC(C)C)c(C(C)=O)c1 (stereo not given) [Acebutolol HCl] | 0.989 ± 0.036 |
| C[C@@H]1O[C@@H](OC[C@H]2O[C@@H](Oc3c(-c4ccc(O)c(O)c4)oc4cc(O)cc(O)c4c3=O)[C@H](O)[C@@H](O)[C@@H]2O)[C@H](O)[C@H](O)[C@H]1O [Rutin] | 1.05 ± 0.028 |
| CN1[C@@H]2CC[C@H]1C[C@@H](OC(c1ccccc1)c1ccccc1)C2 [Benztropine mesylate] | 0.98 ± 0.027 |
| C[C@H](CCC(=O)O)[C@H]1CC[C@H]2[C@@H]3C[C@H](O)[C@@H]4C[C@H](O)CC[C@]4(C)[C@H]3CC[C@]12C [Hyodeoxycholic acid (HDCA)] | 0.966 ± 0.038 |
| N=C(N)c1ccc(N=NNc2ccc(C(=N)N)cc2)cc1 [Diminazene Aceturate] | 0.98 ± 0.025 |
| NC(=O)Nc1sc(-c2ccc(F)cc2)cc1C(N)=O | 0.872 ± 0.027 |
| CC(C)(C)OC(=O)N[C@H]1CCCCC/C=C\[C@@H]2C[C@@]2(C(=O)NS(=O)(=O)C2CC2)NC(=O)[C@@H]2C[C@@H](OC(=O)N3Cc4cccc(F)c4C3)CN2C1=O [Danoprevir (ITMN-191)] | 1.08 ± 0.024 |
| N[C@@H](CC(=O)N1CCn2c(nnc2C(F)(F)F)C1)Cc1cc(F)c(F)cc1F [Sitagliptin phosphate monohydrate] | 0.875 ± 0.013 |
| C[C@@H]1O[C@@H](O[C@H]2[C@H](Oc3cc(O)c4c(c3)O[C@H](c3ccc(O)cc3)CC4=O)O[C@H](CO)[C@@H](O)[C@@H]2O)[C@H](O)[C@H](O)[C@H]1O [Naringin] | 1 ± 0.032 |
| COc1nc(C)cnc1NS(=O)(=O)c1cccnc1-c1ccc(-c2nnco2)cc1 [Zibotentan (ZD4054)] | 1.1 ± 0.04 |
| C/C(O)=C(\C#N)C(=O)Nc1ccc(C(F)(F)F)cc1 [Teriflunomide] | 0.945 ± 0.025 |
| Nc1nccc2c1ncn2C1C=C(CO)C(O)C1O (stereo not given) [3-Deazaneplanocin A (DZNeP)] | 0.7227 ± 0.004 |
| Cc1nc(N(C)C(=O)Cc2ccc(-c3ccccn3)cc2)sc1S(N)(=O)=O [Pritelivir (BAY 57-1293)] | 0.9 ± 0.088 |
| Cn1cc(/C=C/C(=O)c2cccc(F)c2)cc1/C=C/C(=O)NO | 1.09 ± 0.018 |
| C[C@@H](Oc1cc(-c2cnn(C3CCNCC3)c2)cnc1N)c1c(Cl)ccc(F)c1Cl | 0.835 ± 0.016 |
| Cc1cc(Nc2ncc(Cl)c(Nc3ccccc3S(=O)(=O)C(C)C)n2)c(OC(C)C)cc1C1CCNCC1 | 0.912 ± 0.042 |
| O=C(O)Cc1cc(I)c(Oc2ccc(O)c(I)c2)c(I)c1 [Tiratricol] | 1.09 ± 0.011 |
| CCC(CC)(NC(=O)C(C)C)C(=O)N[C@@H](CCCN=C(N)N)C(=O)NC1(C(=O)NC(c2ccc(F)cc2)c2ccc(F)cc2)CCCC1 | 1.07 ± 0.049 |
| CNCC[C@@H](Oc1ccccc1C)c1ccccc1 [Atomoxetine HCl] | 1.05 ± 0.05 |
| Cc1ccc(C(=O)C(C)CN2CCCCC2)cc1 (stereo not given) [Tolperisone HCl] | 0.937 ± 0.073 |
| COc1cc2ncnc(Nc3ccc(F)c(Cl)c3)c2cc1NC(=O)/C=C/CN1CCCCC1 | 0.86 ± 0.057 |

| SMILES | cell viability |
| --- | --- |
| CCCCC1C(=O)N(c2ccccc2)N(c2ccccc2)C1=O [Phenylbutazone] | 1.06 ± 0.051 |
| Nc1ncnc2c1nc(Br)n2[C@@H]1O[C@@H]2COP(=O)(O)O[C@H]2[C@H]1O [8-Bromo-cAMP] | 0.959 ± 0.03 |
| CCCc1nc2c(C)cc(-c3nc4ccccc4n3C)cc2n1Cc1ccc(-c2ccccc2C(=O)O)cc1 [Telmisartan] | 1.08 ± 0.05 |
| COCCCOc1cc(C[C@@H](C[C@H](N)[C@@H](O)C[C@H](C(=O)NCC(C)(C)C(N)=O)C(C)C)C(C)C)ccc1OC [Aliskiren Hemifumarate] | 0.958 ± 0.024 |
| Cc1ccc(C(=O)N(CCCN)[C@@H](c2nc3cc(Cl)ccc3c(=O)n2Cc2ccccc2)C(C)C)cc1 | 0.353 ± 0.023 |
| CC1=CC(=O)c2ccccc2C1=O [Menadione] | 0.996 ± 0.027 |
| CC(=O)/N=c1/sc(S(N)(=O)=O)nn1C [Methazolamide] | 1.06 ± 0.018 |
| CC(=O)NC[C@H]1CN(c2ccc(N3CCOCC3)c(F)c2)C(=O)O1 [Linezolid] | 1.08 ± 0.068 |
| Cc1nccn1CC1CCc2c(c3ccccc3n2C)C1=O (stereo not given) [Ondansetron HCl] | 1.02 ± 0.054 |
| COc1ccc2c(c1)c(CC(=O)OCC(=O)O)c(C)n2C(=O)c1ccc(Cl)cc1 [Acemetacin] | 1.03 ± 0.046 |
| COc1ccc2cc3[n+](cc2c1OC)CCc1cc2c(cc1-3)OCO2 [Berberine HCl] | 0.89 ± 0.015 |
| COc1cc2c(cc1Cc1cccc(Cl)c1F)c(=O)c(C(=O)O)cn2[C@H](CO)C(C)C [Elvitegravir (GS-9137, JTK-303)] | 1.07 ± 0.04 |
| Cn1sc(=O)n(Cc2ccccc2)c1=O | 0.888 ± 0.02 |
| COc1cc(-c2cc(-c3ccc(N4CCNCC4)cc3)cnc2C)cc(OC)c1OC | 0.946 ± 0.048 |
| Nc1ccccc1NC(=O)c1ccc(CNc2nccc(-c3cccnc3)n2)cc1 [Mocetinostat (MGCD0103)] | 0.745 ± 0.016 |
| Cc1ccc(S(=O)(=O)/C=C/C#N)cc1 | 0.754 ± 0.039 |
| CC(C)(C)OC(=O)Nc1ccc(-c2cc(C(=O)NCCCCCCC(=O)NO)no2)cc1 | 0.566 ± 0.022 |
| CC1=C(C(=O)O)N2C(=O)[C@@H](NC(=O)[C@H](N)c3ccccc3)[C@H]2SC1 [Cephalexin] | 1.04 ± 0.028 |
| CC[C@H](C)C(=O)O[C@H]1C[C@H](O)C=C2C=C[C@H](C)[C@H](CC[C@@H](O)C[C@@H](O)CC(=O)O)[C@H]21 [Pravastatin sodium] | 0.956 ± 0.022 |
| CO[C@H]1C[C@@H]2CC[C@@H](C)[C@@](O)(O2)C(=O)C(=O)N2CCCC[C@H]2C(=O)O[C@H]([C@H](C)C[C@@H]2CC[C@H](n3cnnn3)[C@H](OC)C2)CC(=O)[C@H](C)/C=C(\C)[C@@H](O)[C@@H](OC)C(=O)[C@H](C)C[C@H](C)/C=C/C=C/C=C/1C [Zotarolimus(ABT-578)] | 0.5763 ± 0.0053 |
| CCCC(=O)Nc1cccc(NC(=O)c2ccccc2Br)c1 | 1.017 ± 0.01 |
| COc1cc(-c2cc(-c3cccc(O)c3)cnc2N)cc(OC)c1OC | 0.954 ± 0.035 |
| O=C(O)c1ccc(O)c2ncccc12 | 1.08 ± 0.029 |
| COc1cc2ncnc(Nc3ccc(O)c(Br)c3)c2cc1OC | 0.916 ± 0.058 |
| Nc1nnc(-c2cccc(Cl)c2Cl)c(N)n1 [Lamotrigine] | 0.9112 ± 0.0083 |
